Measurements reported in article PMC6919601, “Identification of Plasmodium dipeptidyl aminopeptidase allosteric inhibitors by high throughput screening” (PLoS ONE, 2019).
About 230 (0.21%) of roughly 110,000 compounds showed an effect of 50% or more. Some of the results follow.

Biological target: DPAP1 (Plasmodium falciparum, UniProt Q8IIJ9)
Assay: primary screen, percent inhibition; read by cleavage of a fluorogenic dipeptide substrate; higher = more effect of the substance
Design: species or system P. falciparum D10 trophozoite lysates; single well
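Also: 30 min substrate incubation versus DMSO and 10 µM JCP410 controls.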

Chain of DPAP1 (Q8IIJ9 whole entry, looked up): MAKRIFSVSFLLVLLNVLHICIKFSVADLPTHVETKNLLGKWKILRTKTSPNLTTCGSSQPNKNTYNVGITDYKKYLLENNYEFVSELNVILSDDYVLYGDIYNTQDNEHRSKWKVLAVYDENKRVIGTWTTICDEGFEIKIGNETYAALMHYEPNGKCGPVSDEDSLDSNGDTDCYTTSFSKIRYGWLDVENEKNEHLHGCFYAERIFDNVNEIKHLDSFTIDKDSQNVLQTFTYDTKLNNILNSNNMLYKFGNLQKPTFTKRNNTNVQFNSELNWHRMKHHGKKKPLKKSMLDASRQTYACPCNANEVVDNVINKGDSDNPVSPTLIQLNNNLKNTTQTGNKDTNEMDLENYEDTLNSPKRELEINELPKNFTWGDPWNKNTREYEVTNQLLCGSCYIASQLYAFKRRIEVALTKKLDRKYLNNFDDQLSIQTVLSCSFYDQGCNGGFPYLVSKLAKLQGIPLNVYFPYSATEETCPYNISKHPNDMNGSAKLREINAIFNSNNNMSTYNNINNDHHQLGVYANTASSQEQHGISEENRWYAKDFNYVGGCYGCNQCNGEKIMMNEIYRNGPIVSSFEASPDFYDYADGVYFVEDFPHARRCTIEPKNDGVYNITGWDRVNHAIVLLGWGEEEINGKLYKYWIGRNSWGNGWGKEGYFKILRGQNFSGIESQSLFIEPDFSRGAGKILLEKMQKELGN

| SMILES | % Inhibition @ 10 uM [%] |
| --- | --- |
| O=C(CCS(=O)CCC(=O)NCCc1ccccc1)NCCc1ccccc1 | -0.169 |
| CCOc1ccc(C2C3=C(O)CCCC3=Nc3nc(SC)nn32)cc1OC (stereo not drawn) | 0.0842 |
| CCc1ccc2nc(N3CCC(C(=O)NCc4ccc5c(c4)OCO5)CC3)sc2c1 | -5.51 |
| COc1cc(C(=O)Nc2c3c(nn2-c2ccc(Cl)cc2)CS(=O)(=O)C3)cc(OC)c1OC | 2.94 |
| CCc1c(C)sc(NC(=O)c2cc(Cl)ccc2OC)c1C(N)=O | 3.65 |
| C=CCSc1nnc(-c2ccc(Cl)cc2Cl)o1 | 4.03 |
| Cc1ccc(-c2cc(N)n(CC3CCCCC3)n2)cc1 | 0.24 |
| O=C(c1ccc2ccccc2c1)N1CCN(c2ccccc2)CC1 | 1.64 |
| CCCOc1ccc(/C=c2\sc3nc(=O)c(C)nn3c2=O)cc1 | -4.93 |
| Cc1ccc(C(=O)N(C)c2ccccc2)cc1 | 3.53 |
| CC(CNC(=O)C1CCCN(S(=O)(=O)N2CCCCC2)C1)c1ccccc1 (stereo not drawn) | -1.09 |
| CCOC(=O)c1c(/N=C/C2C(=O)CCCC2=O)sc(C)c1C | 0.408 |
| O=C(CN1CCCCC1)Nc1c2c(nc3c1CCC3)CCC2 | -2.74 |
| COc1ccc(CSc2nc3ccccc3s2)cc1 | 1.38 |
| Cc1ccc(S(=O)(=O)NCC(c2ccccc2)N2CCN(Cc3ccc4c(c3)OCO4)CC2)cc1 (stereo not drawn) | -0.671 |
| CCSc1cc(N2CCOCC2)nc(-c2ccccc2Cl)n1 | -6.67 |
| O=C(CCCNS(=O)(=O)c1ccccc1)NCc1ccco1 | -4.35 |
| O=C(NCc1ccccc1F)c1cc2nc(-c3cccs3)cc(C(F)(F)Cl)n2n1 | -3.04 |
| CCN(CC)C(=O)CN(Cc1ccccc1Cl)S(=O)(=O)c1ccc(Br)cc1 | -1.09 |
| O=C(Cc1ccc2sc(-c3ccccc3)nc2c1)NCc1ccccc1 | -11.1 |
| CCCCOc1ccc(C2C(C(=O)OCC)=C(N)OC3=C2C(=O)CCC3)cc1 (stereo not drawn) | -4.18 |
| Clc1ccccc1N1CCN(CC2CC3C=CC2C3)CC1 (stereo not drawn) | -5.11 |
| CCCCn1c(Oc2ccc(C(=O)OC)cc2)nc2c1c(=O)n(C)c(=O)n2C | 2.17 |
| CC1=C(C(=O)Nc2ccc(C)cc2)C(c2ccc(O)cc2)NC(S)=N1 (stereo not drawn) | -0.233 |
| NS(=O)(=O)c1ccc(CCNC(=O)C2CCCN(c3ncnc4c3nc3n4CCCCC3)C2)cc1 (stereo not drawn) | 4.83 |

| SMILES | % Inhibition @ 10 uM [%] |
| --- | --- |
| O=C(Cn1cnc2c(nnn2Cc2ccc(F)cc2)c1=O)NCc1ccco1 | -0.644 |
| CC(C)=CCc1c2c(c3occ(-c4ccc(O)cc4)c(=O)c3c1O)C=CC(C)(C)O2 | -1.25 |
| Cc1ccc(S(=O)(=O)N2CCN(c3nc(C)nc4sc5c(c34)CCCC5)CC2)cc1 | -19.7 |
| Cc1cccc(NC(=O)Cn2cnc3ccccc3c2=O)c1C | -1.28 |
| CC(C)CC(C(=O)N1CCOCC1)N1C(=O)c2cc(Cl)c(Cl)cc2C1=O (stereo not drawn) | 0.674 |
| CCOc1cc(CNC(=O)C2CCCN(c3nnc(-n4cccc4)s3)C2)cc(OCC)c1OCC (stereo not drawn) | -2.35 |
| Cc1ccc(-c2noc(CNC(=O)c3ccc(C)cc3Cl)n2)cc1 | -4.82 |
| CCc1ccccc1N(CC(=O)N1CCN(C)CC1)S(C)(=O)=O | -14.4 |
| c1ccc(-c2csc(-c3cccnc3)n2)cc1 | -5.49 |
| COc1cc(/C=C2\C(C)=C([N+](=O)[O-])CS2(=O)=O)ccc1O | 4.16 |
| O=C(NC1CCCCC1)C1=Cc2sc3c(c2CS1)CCCC3 | 14.1 |
| CCOc1ccc(C(=O)NCc2ccc(Cl)cc2)cc1OCC | 1.89 |
| CC(C)C[C@H](NS(=O)(=O)c1ccc(-c2ccco2)cc1)C(=O)NCC#N | 1.35 |
| c1ccc(NCc2ccc3c(c2)OCO3)nc1 | -5.51 |
| CCCCNC(=S)N1CCn2cccc2C1c1cc(OC)ccc1OC (stereo not drawn) | 8.84 |
| COc1ccc(C2NC(=O)NC(C)=C2C(=O)OCCc2ccccc2)cc1 (stereo not drawn) | -1.03 |
| O=C(c1ccccc1Cl)N1CCN(c2ccc(F)cc2)CC1 | -4.3 |
| N#CCNC(=O)[C@@H]1CCCC[C@@H]1CS(=O)(=O)c1ccc(S(=O)(=O)CCc2ccccc2)cc1 | -1.41 |
| Cc1ccc(-n2nc3c(N4CCCC(C(=O)NCc5ccccc5)C4)nnc(C)c3c2C)cc1 (stereo not drawn) | 9.2 |
| CN(Cc1ccccc1)C(CNS(=O)(=O)c1ccccc1)c1ccccc1 (stereo not drawn) | -0.671 |
| CC1=C(C#N)C(=O)N(C)C(=O)/C1=C\Nc1cccc2nsnc12 | -0.413 |
| Cc1sc2ncnc(SCC(=O)c3cc(C)n(CC4CCCO4)c3C)c2c1C (stereo not drawn) | 30.2 |
| O=C(c1ccc(COc2ccc(Cl)cc2Cl)o1)N1CCCC1 | -2.66 |
| Cc1c(C(=O)NCCc2ccc(Cl)cc2)oc2ccc3c(c12)C(O)CC(C)(C)O3 (stereo not drawn) | -4.97 |
| O=S(=O)(c1ccc(Cl)cc1)N1CCN(C/C=C/c2ccccc2)CC1 | -2.7 |

| SMILES | % Inhibition @ 10 uM [%] |
| --- | --- |
| Cc1cccc(NC(=O)C2CC2(c2ccccc2)c2ccccc2)c1 (stereo not drawn) | -1.74 |
| CC1=C(C(=O)Nc2ccc(Cl)cc2)C(c2ccccc2Br)NC(=O)N1 (stereo not drawn) | -3.01 |
| COc1ccc(C2CC(c3ccccc3)=NN2C(C)=O)cc1 (stereo not drawn) | -7.15 |
| Cc1ccc(-c2onc(C)c2C)cc1S(=O)(=O)NC1CCCc2ccccc21 (stereo not drawn) | 3.03 |
| c1ccc(N2CCN(Cc3ccc4ccccc4c3)CC2)nc1 | -7.42 |
| CC1CN(Cc2ccc(F)cc2)CC(C)O1 (stereo not drawn) | -0.636 |
| COc1cccc2cc(C(=O)Nc3nc(-c4ccccc4)cs3)c(=O)oc12 | 1.95 |
| COCCCNC(=O)c1nn(C)c2c1CSc1ccccc1-2 | 9.28 |
| CCc1ccc(C2=CC(c3ccccc3C)n3nnnc3N2)cc1 (stereo not drawn) | -1.62 |
| O=C(Cn1ncc2ccsc2c1=O)N1CCN(Cc2ccccc2)CC1 | -1.43 |
| CC(C)CCNC(=O)C(=O)NCc1ccccc1Cl | 4.69 |
| CCN(CC)C(=O)C1CCCN(Cc2cc(Br)c(OC)cc2OC)C1 (stereo not drawn) | 0.605 |
| CC(C)=CCC[C@H](C)CCN1CCN(CCOCCO)CC1 | -1.75 |
| N=C(NC(=O)c1ccccc1Br)Nc1nc2ccccc2o1 | -12.2 |
| CCOc1cc2c(cc1/C=C1/S/C(=N\c3ccccc3)N(CC3CCCO3)C1=O)OCO2 (stereo not drawn) | 1.1 |
| CCOc1cc(/C=C2\CCCC(C(=O)C(F)(F)F)=C2O)ccc1O | 0.413 |
| CN1c2ccccc2-c2ccccc2C12C=Cc1ccccc1O2 (stereo not drawn) | 0.215 |
| O=C(CCCN1C(=O)c2ccccc2C1=O)Nc1ccc(C(=O)O)cc1 | -1.22 |
| CC(CNC(=O)CCCn1ncn2c(cc3occc32)c1=O)c1ccccc1 (stereo not drawn) | -3.79 |
| Cc1ccc(C2C3=C(O)CC(C)(C)CC3=Nc3ncnn32)cc1 (stereo not drawn) | -2.92 |
| c1ccc(CN2CN(c3nccs3)CN(c3nccs3)C2)cc1 | -1.72 |
| C=CCc1cccc2cc(C(=O)NCCc3c(C)[nH]c4ccc(C)cc34)c(=O)oc12 | -2.5 |
| Cc1ccc(Nc2ncc(F)c(N3CCOCC3)n2)c(C)c1 | 3.35 |
| COc1cccc(OC)c1C(=O)NC(C)C12CC3CC(CC(C3)C1)C2 (stereo not drawn) | 2.03 |
| Cc1ccc(SC(C)C(=O)Nc2ccc3c(c2)OCCO3)cc1 (stereo not drawn) | 6.24 |

| SMILES | % Inhibition @ 10 uM [%] |
| --- | --- |
| O=C(c1cc2c(s1)-c1ccccc1OC2)N1CCC2(CC1)OCCO2 | -4.85 |
| N#Cc1ccc(NC(=O)c2sc3nc4c(cc3c2N)CCC4)cc1 | 4.42 |
| Cc1ccc(C2SCC(=O)N2c2ccc(C)cc2)cc1 (stereo not drawn) | 2.13 |
| Cc1ccc(C(=O)Nc2ccc(S(=O)(=O)N3CCC(C)CC3)cc2)cc1Br | 0.83 |
| CCC(C)N1C(=O)S/C(=C/c2cc(Cl)c(O)c(OC)c2)C1=O (stereo not drawn) | 3.71 |
| Cc1[nH]c2ccc(C(=O)N3CCN(c4ncccn4)CC3)cc2c1C | -3.02 |
| O=C(CSC1=NCCS1)NCc1ccco1 | 6.51 |
| CC(C)c1ccccc1NC(=O)Cc1cccs1 | 4.03 |
| CCOC(=O)c1c(C)[nH]c(C)c1S(=O)(=O)N(C)CC(=O)Nc1nc2ccc(Cl)cc2s1 | -0.695 |
| COc1cc(-c2cc(C(=O)O)c3cc4c(cc3n2)OCCO4)cc(OC)c1OC | 3.67 |
| CCOc1ccc(C(=O)Nc2ccc(CN3CCOCC3)cc2)cc1 | -4.82 |
| Cc1ccc(CNC(=O)Cn2c3c(c(-c4ccccc4Cl)cc2=O)CCC3)cc1 | -1.46 |
| Clc1ccccc1CN1CCOCC1 | -4.14 |
| COc1ccc(S(=O)(=O)N(C(=O)c2ccccc2)c2ccc3oc(C)c(C(C)=O)c3c2)cc1 | -1.16 |
| O=C1/C(=C/c2ccccc2)N=C(N2CCCCC2)N1c1ccccc1 | 0.0504 |
| COc1ccc(-c2cc(C(=O)Nc3c(C)nn(Cc4ccccc4C)c3C)no2)cc1OC | -3.12 |
| Cc1cc(NC(=O)C(C)Sc2nc(=O)cc(N)n2CCc2ccccc2)no1 (stereo not drawn) | 16 |
| CCn1c(=N)n(CC(=O)c2ccc(F)cc2)c2ccccc21 | 0.206 |
| O=C(CC(=O)c1ccccc1O)c1cccs1 | -8.67 |
| CC(C)C[C@H](NC(c1ccc(-c2ccc(F)cc2F)cc1)c1nccs1)C(=O)NC1(C#N)CC1 (stereo partly drawn) | -1.41 |
| COc1cc(C(=O)NCCC(=O)NC2CCCCC2)cc(OC)c1OC | -2.26 |
| Cc1c(C#N)c(N)c(C(=O)c2ccccc2)n1-c1ccc(Br)cc1 | 2.38 |
| CC1CCCC(NC(=O)C(Cc2ccccc2)n2cccc2)C1C (stereo not drawn) | 2.6 |
| COc1cc2c(cc1OC)C(c1cc(OC)c(OC)cc1[N+](=O)[O-])N(C(C)=O)CC2 (stereo not drawn) | 4.45 |
